From the supplement of paper PMC8007513
Counter-ions that a name gives are not always drawn. ± gives the standard error. The campaign covered roughly 1,300 compounds. About 130 (10%) showed an effect of 50% or more. This is a selection; strong and weak results do not stand in their true shares.

Tested on: Trichoderma virens ATCC 9645
Experiment: growth yield (OD600) with compound + IPBC relative to untreated control; higher = less growth inhibition
Settings: compound concentration: 100 uM, IPBC concentration: 200 ng/ml
Method in brief: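 Library compounds (100 μM final), with or without a co-applied biocide (200 ng ml^−1), were added to 100 μl aliquots of Trichoderma virens ATCC 9645 spores at 15,000 spores ml^−1 in potato dextrose broth. Cultures were grown at 30 °C in 96-well plates, and OD600 was measured at 40 h and 72 h. Each growth value is a mean of duplicate screens, expressed relative to the control with neither agent.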

Compound	growth yield (40 h)	growth yield (72 h)
C[C@H](N)[C@H](O)c1ccc(O)c(O)c1 [Levonordefrin] + CCCCNC(=O)OCC#CI [3-iodo-2-propynyl butylcarbamate (IPBC)]	106.7 ± 0.32%	99.5 ± 1.1%
CCN(CC)CCOC(=O)c1ccc(N)cc1 [Procaine hydrochloride] + CCCCNC(=O)OCC#CI [3-iodo-2-propynyl butylcarbamate (IPBC)]	99.59 ± 0.16%	99 ± 0.21%
Cc1c(C)c2c(c(C)c1O)CCC(C)(C(=O)O)O2 (centres undefined) [Trolox] + CCCCNC(=O)OCC#CI [3-iodo-2-propynyl butylcarbamate (IPBC)]	82.8 ± 1.1%	85.27 ± 0.32%
C[C@@H](O)[C@H]1C(=O)N2C(C(=O)O)=C(S[C@@H]3CN[C@H](C(=O)N(C)C)C3)[C@H](C)[C@H]12 [Meropenem] + CCCCNC(=O)OCC#CI [3-iodo-2-propynyl butylcarbamate (IPBC)]	94.2 ± 1.8%	94.4 ± 1.5%
CN1[C@@H]2CC[C@H]1C[C@@H](OC(=O)[C@H](CO)c1ccccc1)C2 [Hyoscyamine (L)] + CCCCNC(=O)OCC#CI [3-iodo-2-propynyl butylcarbamate (IPBC)]	97.1 ± 5.9%	100 ± 4.5%
CC(=O)O[C@H]1C[C@@H]2CC[C@@H]3[C@H](CC[C@@]4(C)[C@H]3C[C@H]([N+]3(C)CCCCC3)[C@@H]4OC(C)=O)[C@@]2(C)C[C@@H]1N1CCCCC1 [Vecuronium bromide] + CCCCNC(=O)OCC#CI [3-iodo-2-propynyl butylcarbamate (IPBC)]	83.1 ± 1.1%	88.2 ± 0.32%
C[C@]12C=CC(=O)C=C1CC[C@H]1[C@@H]3C[C@@H](O)[C@](O)(C(=O)CO)[C@@]3(C)C[C@H](O)[C@@]12F [Triamcinolone] + CCCCNC(=O)OCC#CI [3-iodo-2-propynyl butylcarbamate (IPBC)]	98.3 ± 3%	97.5 ± 1.9%
CCN(CC)C(=O)/C(C#N)=C/c1cc(O)c(O)c([N+](=O)[O-])c1 [Entacapone] + CCCCNC(=O)OCC#CI [3-iodo-2-propynyl butylcarbamate (IPBC)]	88 ± 0.64%	80.4 ± 1.4%
CNCCCC12CCC(c3ccccc31)c1ccccc12 [Maprotiline hydrochloride] + CCCCNC(=O)OCC#CI [3-iodo-2-propynyl butylcarbamate (IPBC)]	65.92 ± 0.48%	89.88 ± 0.32%
C[C@@H]1C[C@H]2[C@@H]3C[C@H](F)C4=CC(=O)C=C[C@]4(C)[C@@]3(Cl)[C@@H](O)C[C@]2(C)[C@H]1C(=O)COC(=O)C(C)(C)C [Clocortolone pivalate] + CCCCNC(=O)OCC#CI [3-iodo-2-propynyl butylcarbamate (IPBC)]	101%	93 ± 8.1%
NS(=O)(=O)c1cc(Cl)c(Cl)c(S(N)(=O)=O)c1 [Dichlorphenamide] + CCCCNC(=O)OCC#CI [3-iodo-2-propynyl butylcarbamate (IPBC)]	95.3 ± 5.1%	98.17 ± 0.21%
CCCCCNC(=N)N/N=C/c1c[nH]c2ccc(OC)cc12 [Tegaserod maleate] + CCCCNC(=O)OCC#CI [3-iodo-2-propynyl butylcarbamate (IPBC)]	5.4%	5.24 ± 0.21%
CN(C)CCCSC(=N)N [Dimaprit dihydrochloride] + CCCCNC(=O)OCC#CI [3-iodo-2-propynyl butylcarbamate (IPBC)]	93.9 ± 6.5%	95.8 ± 4.3%
Cc1onc(-c2c(F)cccc2Cl)c1C(=O)N[C@@H]1C(=O)N2[C@@H]1SC(C)(C)[C@@H]2C(=O)O [Flucloxacillin sodium] + CCCCNC(=O)OCC#CI [3-iodo-2-propynyl butylcarbamate (IPBC)]	97.4 ± 12%	96 ± 8.7%
O=C(NCCN1CCOCC1)c1ccc(Cl)cc1 [Moclobemide] + CCCCNC(=O)OCC#CI [3-iodo-2-propynyl butylcarbamate (IPBC)]	81.6 ± 4.8%	89.7 ± 2%
CC(=O)CCCCn1c(=O)c2c(ncn2C)n(C)c1=O [Pentoxifylline] + CCCCNC(=O)OCC#CI [3-iodo-2-propynyl butylcarbamate (IPBC)]	85.3 ± 1.1%	91.87 ± 0.63%
CN1C(=O)OC(C)(C)C1=O [Trimethadione] + CCCCNC(=O)OCC#CI [3-iodo-2-propynyl butylcarbamate (IPBC)]	92.4 ± 1.6%	93.3 ± 1.1%
CN(C/C=C/c1ccccc1)Cc1cccc2ccccc12 [Naftifine hydrochloride] + CCCCNC(=O)OCC#CI [3-iodo-2-propynyl butylcarbamate (IPBC)]	13.2 ± 3%	50 ± 2.2%
CN[C@@H]1C[C@@H](c2ccc(Cl)c(Cl)c2)c2ccccc21 [Indatraline hydrochloride] + CCCCNC(=O)OCC#CI [3-iodo-2-propynyl butylcarbamate (IPBC)]	29.4 ± 4.9%	–
CC(C)NC[C@H](O)COc1cccc2ccccc12 [(S)-propranolol hydrochloride] + CCCCNC(=O)OCC#CI [3-iodo-2-propynyl butylcarbamate (IPBC)]	82.92 ± 0.64%	90.9 ± 2.2%
CC(C(=O)O)c1cccc(C(=O)c2ccccc2)c1 (centres undefined) [Ketoprofen] + CCCCNC(=O)OCC#CI [3-iodo-2-propynyl butylcarbamate (IPBC)]	74 ± 0.95%	86.4 ± 1.5%
CCCC1O[C@@H]2C[C@H]3[C@@H]4CCC5=CC(=O)C=C[C@]5(C)[C@H]4[C@@H](O)C[C@]3(C)[C@]2(C(=O)CO)O1 (some centres undefined) [Budesonide] + CCCCNC(=O)OCC#CI [3-iodo-2-propynyl butylcarbamate (IPBC)]	82.44 ± 0.79%	89.4 ± 2.3%
Nc1nc2c(ncn2COCCO)c(=O)[nH]1 [Acyclovir] + CCCCNC(=O)OCC#CI [3-iodo-2-propynyl butylcarbamate (IPBC)]	100 ± 3.5%	101 ± 3.5%
CCCCCN(CCCCC)C(=O)C(CCC(=O)O)NC(=O)c1ccc(Cl)c(Cl)c1 (centres undefined) [Lorglumide sodium salt] + CCCCNC(=O)OCC#CI [3-iodo-2-propynyl butylcarbamate (IPBC)]	85.5 ± 4.1%	85.5 ± 6.4%
CC(C)(C)NC(=O)[C@@H]1C[C@@H]2CCCC[C@@H]2CN1C[C@@H](O)[C@H](Cc1ccccc1)NC(=O)[C@H](CC(N)=O)NC(=O)c1ccc2ccccc2n1 [Saquinavir mesylate] + CCCCNC(=O)OCC#CI [3-iodo-2-propynyl butylcarbamate (IPBC)]	61 ± 1.6%	99.74 ± 0.94%
